This is one part of the list. These are further read-outs of the screen, such as a control signal, another cell line or another target. No call is given for them. Compounds called inactive in the main read-out are mostly missing here.
assay: inhibitors of triacylglycerol accumulation, primary screen, cell-based, uHTS, fluorescence, H9c2 (AID 651582); conditions: H9c2 cells, Nile Red lipid (TAG) fluorescence; measured here:; at 12.5 µM; cells loaded with 200 µM oleic acid

| SMILES | DAPI nuclei signal change (viability), lower = more cytotoxic [%] |
| --- | --- |
| CCN1CCC(O)(/C=C/c2ccc(C(C)C)cc2)C(C(=O)/C=C/c2ccc(C(C)C)cc2)C1 (stereo not given) | -49 |
| CN=C1c2cc3cc(OC)ccc3n2CCN1Cc1ccccc1 | -15.6 |
| CC(C)N1CSC(=S)N(Cc2ccccc2)C1 | -42.1 |
| Cc1ccc2c(c1)-c1c(cnn1CC(=O)Nc1ccccc1N1CCN(C)CC1)CO2 | -24.3 |
| Cn1ncc2c(O/N=C(\N)c3ccc(C(C)(C)C)cc3)ncnc21 | -30.1 |
| COc1ccc(N2CCN(CC(=O)c3c(C)n(C)c4ccc(OC)cc34)CC2)cc1 | -19.2 |
| CCn1c(Cl)c(C=O)s/c1=N\S(=O)(=O)c1ccccc1 | -26.9 |
| Cc1cc(C)n(-c2nc3c(c(=O)[nH]c(=O)n3C)n2CC(O)COc2ccc(Cl)cc2Cl)n1 (stereo not given) | -31.2 |
| COC(=O)[C@@H](CC(C)C)N(Cc1ccccc1)S(=O)(=O)N(Cc1ccccc1)[C@@H](CC(C)C)C(=O)OC | -41.5 |
| COC(=O)C1=C(C)N(Cc2ccccc2)C(=NCc2ccc(OC)cc2)N[C@H]1c1ccccc1 | -26.3 |
| CC(=O)n1cc(N(C(=O)CCl)c2ccc(Cl)cc2)c2ccccc21 | -23.1 |
| CSc1ccc(/C=C/C(=O)c2ccc(NC(=O)Cc3ccccc3)cc2)cc1 | -2.22 |
| CC(C)(C)N(Cc1ccc2c(c1)OCO2)C(=O)/C=C\S(=O)c1ccccc1 (stereo not given) | -13.5 |
| CCOC(=O)c1ccc(NC(=O)Cn2ncc(Cl)c(Cl)c2=O)cc1 | -15.9 |
| O=c1c(N=Nc2ccc(O)cc2)c(-c2ccccc2)[nH]n1-c1ccc([N+](=O)[O-])cc1 | -46.7 |
| COc1ccc(-c2nc(N/N=C(\C)c3ccc(O)cc3)c3ccccc3n2)cc1 | -11.9 |
| COc1ccc(CCNC(=O)Cc2cc(OCc3ccccc3)c(OC)cc2[N+](=O)[O-])cc1OC | -26.9 |
| O=[N+]([O-])c1ccc(N=Nc2ccc(O)c3ccccc23)cc1 | -29.9 |
| CCCCN(C)C(=O)CCCCn1c(=O)[nH]c2cc(OCC)c(OCC)cc2c1=O | 4.25 |
| CC(C)N(C#N)c1nc(N2CCOCC2)nc(N2CCOCC2)n1 | -13 |
| COc1ccc(-c2csc(NC(=O)CC(C)C)n2)cc1 | 3.23 |
| COc1ccccc1-c1cc(NC=O)c2ncc(-c3cccc(C(=O)N(C)C)c3)n2c1 | -41.4 |
| COc1ccccc1N1CCN(C(=O)C2c3ccccc3Oc3ccccc32)CC1 | -39.3 |

| SMILES | DAPI nuclei signal change (viability), lower = more cytotoxic [%] |
| --- | --- |
| CCCCNC(=O)c1cnc(Cc2c[nH]c3ccccc23)c(I)c1 | -43.9 |
| Cc1ccc(S(=O)(=O)c2ccc([N+](=O)[O-])o2)cc1 | -42.2 |
| Cc1ccc2nc(N(CCCN(C)C)C(=O)c3ccc(S(=O)(=O)N4CCc5ccccc5C4)cc3)sc2c1 | -32.4 |
| COC(=O)C1=C(C)N(Cc2ccccc2)C(=NCc2ccccc2)N[C@H]1c1cccc(F)c1 | -7.9 |
| N/C(=N\c1nc2ccccc2o1)NC(=O)c1ccc(F)cc1 | -46.9 |
| Cc1cc2[nH]c3c(c[n+](C)c4ccccc34)c2cc1C | -37.5 |
| C#CCN(C[C@H]1[C@H](OC(=O)NCC2CCCCC2)[C@H](OC(=O)NCC2CCCCC2)C[C@@H](C(=O)OC)[C@H]1C(=O)OC)S(=O)(=O)c1ccc(C)cc1 | -13.9 |
| CCOC(=O)C1=C(C)N(C[C@@H]2CC[C@@H](Cc3ccc(-c4ccccc4)cc3)O2)C(=O)NC1c1cccc2ccccc12 (stereo not given in full) | -11.7 |
| CCNC1=C(Cl)C(=O)c2ccccc2C1=O | -40.5 |
| CN(C)c1ccc(NC(=O)CSc2nc3ccccc3c(=O)n2C2CCCCC2)cc1 | -2.54 |
| CC1CCCN(C(=O)c2ccc3c(c2NCCO)C(=O)c2ccccc2C3=O)C1 (stereo not given) | -3.47 |
| C=CCn1c(N)c(C(=O)Nc2ccccc2)c2nc3ccccc3nc21 | 18.9 |
| CCN(C[C@H]1N[C@@](CC)(C(=O)OC)[C@H]2C(=O)N(Cc3ccccc3)C(=O)[C@@H]12)S(=O)(=O)c1ccc(C(C)(C)C)cc1 | -11 |
| CO/N=C\CC(=O)Nc1ccc(Oc2ccccc2)cc1 | -42.7 |
| C=C1CCN(C(C)C(=O)OC)S(=O)(=O)c2ccccc21 (stereo not given) | -29.6 |
| CCCCCC(/C=N/Nc1ccc(S(=O)(=O)N2CCOCC2)cc1[N+](=O)[O-])=C\c1ccccc1 | -17.6 |
| CCN(CC)CCNC(=O)C(Cl)=C1C(Cl)=C(Cl)C(Cl)=C1Cl | -48.1 |
| Nc1c(C(=O)NC2CCCC2)c2nc3ccccc3nc2n1/N=C/c1cccnc1 | 43.3 |
| CCCc1[nH]n(-c2ccc([N+](=O)[O-])cc2)c(=O)c1C=NCCc1c[nH]c2ccccc12 | -12.4 |
| COc1ccc(C2=Nn3c(nnc3-c3ccccc3OC)SC2)cc1OC | -39.1 |
| c1cc(C2CCCCC2)ccc1Oc1nc(N2CCOCC2)nc(N2CCOCC2)n1 | -6 |
| COc1ccc(NC(=O)C2Cc3c(-c4cccc(C(C)=O)c4)ccnc3O2)cc1 (stereo not given) | -47.8 |
